From PubChem BioAssay AID360 (National Center for Advancing Translational Sciences (NCATS), 2006) come the findings set out here.

Molecules are shown by their SMILES. The whole screen tested about 48,000 compounds, of which about 550 (1.1%) were called active. Another 4% or so got no clear call; they are omitted. No stated cut-off is given here; in the data, active means potency below about 15 µM; inconclusive means mostly about 16 µM to 33 µM; inactive means weaker than that. The list shows a part of the results.
Potency means the concentration at half of the fitted maximal effect.

The test addresses Lysosomal acid glucosylceramidase (Homo sapiens) (UniProt P04062). Briefly: Glucocerebrosidase.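 Further: the screen sought inhibitors.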 The note with it: purified enzyme, resorufin glucoside fluorescence (screen aimed at inhibitors), 20 min. In outline: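 Normal human glucocerebrosidase (0.2 nM final) was assayed with resorufin β-D-glucopyranoside (30 uM final) in 50mM citric acid/KH2PO4, 10mM sodium taurocholate, 0.01% tween-20, pH 5.9. Compounds were titrated; fluorescence (Ex 548, Em 600) read after 20 min at RT.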
UniProt P04062, sequence (P04062 whole entry, looked up): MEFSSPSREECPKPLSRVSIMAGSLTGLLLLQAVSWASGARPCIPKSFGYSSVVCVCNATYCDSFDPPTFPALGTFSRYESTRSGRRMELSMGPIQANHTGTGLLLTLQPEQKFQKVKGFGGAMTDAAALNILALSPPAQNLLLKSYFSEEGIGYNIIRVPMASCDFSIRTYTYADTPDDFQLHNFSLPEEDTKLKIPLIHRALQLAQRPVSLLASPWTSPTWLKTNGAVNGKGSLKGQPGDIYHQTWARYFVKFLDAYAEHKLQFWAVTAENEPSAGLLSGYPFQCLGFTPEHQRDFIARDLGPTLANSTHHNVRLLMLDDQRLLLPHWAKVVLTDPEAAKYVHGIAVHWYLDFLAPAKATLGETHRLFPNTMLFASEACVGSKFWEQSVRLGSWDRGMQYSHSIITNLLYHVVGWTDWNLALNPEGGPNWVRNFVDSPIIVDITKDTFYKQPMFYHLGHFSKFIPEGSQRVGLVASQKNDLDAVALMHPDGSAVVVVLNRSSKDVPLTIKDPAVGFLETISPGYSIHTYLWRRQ
Regarding `Cc1nc2c(n1O)CCC/C2=N\O`, the Potency was inactive: > 76.9 µM.

For `Nc1sccc1C(=O)c1ccc(Cl)cc1`, the Potency is inactive: > 76.9 µM. In the case of `Cc1ccc(Cn2c(NC(=O)c3ccco3)nc3ccccc32)cc1`, the Potency was inactive: > 76.9 µM.

In the case of `Cc1cccc(NC(=O)c2cc(NC(=O)C3CCCCC3C(=O)O)ccc2Cl)n1` (configuration not stated), the Potency is inactive: > 76.9 µM. Consider `CCCNc1nc2c(c(=O)[nH]c(=O)n2C)n1CCC(C)C`, for which the Potency was inactive: > 76.9 µM. In the case of `COc1nonc1NC(=O)CSc1nc2ccccc2[nH]1` it was inactive: > 76.9 µM; in that of `CCOC(=O)C1[C@H]2C(=O)N(CCCOC)C[C@]23C=C[C@H]1O3` (some centres not stated), inactive: > 76.9 µM; in that of `O=S1(=O)C=CC(Nc2cccc(Cl)c2)C1` (configuration not stated), inactive: > 76.9 µM.

Turning to `O=C(O)CCCCCNC(=O)CCn1cnc2ccccc2c1=O`, the Potency was inactive: > 76.9 µM. As for `C=C(C)c1nc(N)nc(N)n1`, the Potency is inactive: > 76.9 µM.

Take `CNc1nc(Oc2ccccc2C(=O)OC)nc(SC)n1`: the Potency is inactive: > 76.9 µM. As for `CCOc1ccc(NC(=O)N2CC=C(n3c(=O)[nH]c4ccccc43)CC2)cc1`, the Potency is inactive: > 76.9 µM. As for `CCc1nc(CNC(=O)c2cc(OC)c(OC)c(OC)c2)no1`, the Potency is inactive: > 76.9 µM. For `O=S(=O)(NCC1CCN(S(=O)(=O)c2ccccc2)CC1)c1ccccc1`, the Potency was inactive: > 76.9 µM. Take `CC1CCN(C(=O)Cn2c(=O)oc3ccccc32)CC1`: the Potency was inactive: > 76.9 µM. Turning to `CCOC(=O)c1ccc(-n2c(-c3ccco3)nc3ccccc3c2=O)cc1`, the Potency is inactive: > 76.9 µM. As for `COc1ccc(-c2cc(C(=O)N3CC4(C)CC3CC(C)(C)C4)no2)cc1` (configuration not stated), the Potency is inactive: > 76.9 µM. For `CCOC(=O)N1CCN(C(=O)C2CCN(S(=O)(=O)c3ccc(Br)s3)CC2)CC1`, the Potency was inactive: > 76.9 µM. As for `CCC(=O)c1ccc(OCC(O)Cn2cnc3ccccc32)cc1` (configuration not stated), the Potency entry was “inactive”. As to `CC(C)=C(NC(=O)c1ccco1)C(=O)NCCc1nc2ccccc2[nH]1`, the Potency is inactive: > 76.9 µM. In the case of `CCOC(=O)c1cnn(-c2sc(C(=O)OCC)c(C)c2C(=O)OCC)c1N`, the Potency is inactive: > 76.9 µM. On to `Cc1cccc2cc(CN(Cc3ccc4c(c3)OCO4)Cc3nnnn3C3CCCC3)c(=O)[nH]c12`, for which the Potency was inactive: > 76.9 µM. On to `CC(=O)Nc1ccc(S(=O)(=O)NCC2CCC(C(=O)NCCCN3CCCC3=O)CC2)cc1` (configuration not stated), for which the Potency was inactive: > 76.9 µM. As for `O=C(O)c1ccccc1C(=O)c1cccs1`, the figure is inactive: > 76.9 µM; as for `CCOc1nc(-c2ccc(OC)cc2)ccc1-c1noc(-c2ccncc2)n1`, inactive: > 76.9 µM.

On to `CCN(CC(N)=O)S(=O)(=O)c1ccc(Br)cc1`, for which the Potency was inactive: > 76.9 µM. As for `COC(=O)C1=C(N)Oc2cc(C)n(C)c(=O)c2C1c1ccc(Cl)cc1` (configuration not stated), the Potency was inactive: > 76.9 µM. As for `NC(=O)COc1ccc(C2c3c(oc4ccccc4c3=O)C(=O)N2CC2CCCO2)cc1` (configuration not stated), the figure is inactive: > 76.9 µM; as for `CCn1c(CSc2ncccn2)nnc1SCC(=O)N1c2ccccc2CC1C` (configuration not stated), inactive: > 76.9 µM; as for `CCS(=O)(=O)n1nc(-c2ccccc2)nc1N`, inactive: > 76.9 µM.

With `CCOC(=O)C1=C(C)NC(C)=C(C(=O)OCC)C1C(=O)OCC(=O)N1CCc2ccccc2C1`, the Potency was inactive: > 76.9 µM. As for `O=C(CSc1nnnn1-c1ccc2c(c1)OCO2)NCc1cccs1`, the Potency was inactive: > 76.9 µM. On to `CCc1nnc(NC(=O)CSc2nnc(-c3cccnc3)n2CCc2ccccc2)s1`, for which the Potency is inactive: > 76.9 µM. With `Cc1cc(C)cc(NC(=O)C2CCCC2)c1`, the Potency was inactive: > 76.9 µM.

For `Cc1ccc(S(=O)(=O)N2CCN(S(=O)(=O)c3ccc4c(c3)OCCO4)CC2)cc1`, the Potency is inactive: > 76.9 µM. Take `Cc1cc(OC(=O)CNC(=O)OC(C)(C)C)c2c(C)cc(=O)oc2c1`: the Potency was inactive: > 76.9 µM. For `CC(C)CNS(=O)(=O)c1ccc(CCC(=O)NCC2CCCO2)cc1` (configuration not stated), the Potency is inactive: > 76.9 µM.

With `CCOC(=O)c1cnn2c(C)cc(-c3ccccc3)nc12`, the Potency is inactive: > 76.9 µM. As for `COc1cccc(-c2cnc(NCc3cc(Cl)ccc3O)n2C)c1`, the entry is “inactive”. Regarding `NS(=O)(=O)c1ccc(-n2nncc2C23CC4CC(CC(C4)C2)C3)cc1`, the Potency was inactive: > 76.9 µM.

With `Cn1c(C(=O)O)c(CC(=O)NCc2cccnc2)c2ccccc21`, the Potency was inactive: > 76.9 µM. Consider `CC(C)Cn1nc(NS(=O)(=O)c2ccccc2)c2cc3ccccc3nc21`, for which the Potency is inactive: > 76.9 µM. As for `COc1ccc(CNC(=O)Nc2ccc(C)cc2)cc1`, the figure is inactive: > 76.9 µM; as for `COC(=O)CN1C(=O)C2(OCCCO2)c2ccccc21`, inactive: > 76.9 µM; as for `CN1CC(=O)N(CC(=O)Nc2ccc(F)cc2)c2ccccc2C1=O`, inactive: > 76.9 µM.

For the compound `O=C(CSc1nnc(-c2cccnc2)o1)Nc1ccccn1`, the Potency was inactive: > 76.9 µM. For `O=C(Cn1ncc2c(=O)oc3ccccc3c21)N1CCN(c2ccccn2)CC1`, the Potency was inactive: > 76.9 µM. For `O=C(Nc1ccc(Oc2ccc(Cl)cc2)cc1)c1ncn[nH]1`, the Potency is inactive: > 76.9 µM.

Regarding `COc1cc(NC(=O)c2ccc(Br)o2)ccc1NC(=O)C(C)C`, the Potency is inactive: > 76.9 µM.

For the compound `Cc1nc(S(=O)(=O)N2CCOCC2)c(C#N)c(C)c1Cl`, the Potency is inactive: > 76.9 µM. Consider `COc1ccc(-c2nnc(SCC#N)o2)cc1`, for which the Potency is inactive: > 76.9 µM. In the case of `CCCc1cc(=O)oc2cc(OCC(=O)Nc3cc(C)on3)ccc12` it was inactive: > 76.9 µM; in that of `O=C(O)C1CCCCC1C(=O)NCCc1c[nH]c2ccccc12` (configuration not stated), inactive: > 76.9 µM.

As to `CC(=O)c1ccc(NC(=O)CCn2c(=O)oc3ccccc32)cc1`, the Potency is inactive: > 76.9 µM. As to `CCOc1ccc(N2C(=O)CC(Sc3nccc(C)n3)C2=O)cc1` (configuration not stated), the Potency is inactive: > 76.9 µM. In the case of `Cc1ccc(C)c(OCCCC(=O)Nc2ccc(N3CCOCC3)cc2)c1`, the Potency was inactive: > 76.9 µM. As for `CCOCCOCN(C#N)c1nc(OC)nc(N(C)C)n1`, the Potency was inactive: > 76.9 µM. On to `CC(C(=O)NC1=NCCS1)(C(F)(F)F)C(F)(F)F`, for which the Potency was inactive: > 76.9 µM. Consider `COc1ccccc1NC(=O)CSc1nnc(C2CCCCC2)n1C`, for which the Potency is inactive: > 76.9 µM. In the case of `CCCN1CCN(CCCNC(=O)C2CCN(c3nnc(-n4cccc4)s3)CC2)CC1` it was inactive: > 76.9 µM; in that of `CCOC(=O)c1c(NC(=O)CSc2nnc(C)c(=O)[nH]2)sc2c1CCC2`, inactive: > 76.9 µM; in that of `Cc1ccnc(SCC(=O)Nc2sc3c(c2C#N)CCCC3)n1`, inactive: > 76.9 µM. As for `COc1ccc(C(=O)COC(=O)CN2C(=O)NC(C)(C)C2=O)cc1OC`, the Potency is inactive: > 76.9 µM.

Consider `O=S(=O)(c1ccc2ccccc2c1)n1cnc2ccccc21`, for which the Potency was inactive: > 76.9 µM. As for `COc1ccccc1NC(=O)C(C)NS(=O)(=O)c1ccccc1` (configuration not stated), the figure is inactive: > 76.9 µM; as for `Cc1noc(C)c1COC(=O)Cn1c(C)nc2ccccc21`, inactive: > 76.9 µM; as for `COc1ccc(OCCNC(=O)c2ccccc2OCC(=O)N2CCCCC2)cc1`, inactive: > 76.9 µM. Regarding `CCOc1ccc(N2CC(C(=O)OC)CC2=O)cc1` (configuration not stated), the Potency is inactive: > 76.9 µM. Turning to `NC(=O)C1CCN(C(=O)C2c3ccccc3C(=O)N3CCc4ccccc4C23)CC1` (configuration not stated), the Potency was inactive: > 76.9 µM. Regarding `O=C(NCc1cccnc1)C(C(=O)c1ccc(F)cc1)n1ccccc1=O` (configuration not stated), the Potency was inactive: > 76.9 µM.

In the case of `CC1CC1C(=O)OCC(=O)NCc1ccccc1Cl` (configuration not stated), the Potency was inactive: > 76.9 µM. Take `O=C1c2ccccc2C(=O)N1c1nc(-c2cccs2)cs1`: the Potency entry is “inactive”.

With `CSc1ccccc1C(=O)Nc1cccc(N(C)S(C)(=O)=O)c1`, the Potency is inactive: > 76.9 µM. As for `CC(NC(=O)COC(=O)CCNC(=O)c1ccco1)C12CC3CC(CC(C3)C1)C2` (configuration not stated), the entry is “inactive”; as for `COc1nc(-c2ccc(Cl)cc2)ccc1-c1noc(-c2ccco2)n1`, inactive: > 76.9 µM. For the compound `COc1ccc(OC)c(CN2CCN(C(=O)c3cccs3)CC2)c1`, the Potency was inactive: > 76.9 µM. Take `CCn1c2c(c3ccc(OC)cc31)CCCC2=O`: the Potency was inactive: > 76.9 µM. Consider `O=C(COc1ccc(-n2cnnn2)cc1)N1CCN(c2ccc(F)cc2)CC1`, for which the Potency was inactive: > 76.9 µM. As to `CCOc1ccc(-n2ccnc2SCC(=O)NCc2ccc3c(c2)OCO3)cc1`, the Potency was inactive: > 76.9 µM.

On to `N#Cc1nc(-c2ccc(OCc3ccccc3)cc2)oc1NCc1cccnc1`, for which the Potency is inactive: > 76.9 µM. In the case of `CCOC(=O)NCc1cc(-c2nn(C)c(=O)c3ccccc23)ccc1C` it was inactive: > 76.9 µM; in that of `CCC(=O)NCCNC(=O)c1c(SC)nsc1SC`, inactive: > 76.9 µM. Regarding `O=c1c(-c2ccccc2)coc2c(CN3CCCC3)c(O)ccc12`, the Potency is inactive: > 76.9 µM.

Regarding `Cc1cc(NC(=O)c2ccc3c(c2)C(=O)N(Cc2cccnc2)C3=O)no1`, the Potency is inactive: > 76.9 µM. Consider `COc1ccc(Cl)cc1S(=O)(=O)N1CCN(Cc2ccc3c(c2)OCO3)CC1`, for which the Potency entry is “inactive”. As for `Cc1cccc(-n2ncc3c(N4CCc5ccccc54)ncnc32)c1`, the Potency is inactive: > 76.9 µM. Consider `O=C(Nc1nnc(-c2ccccc2)o1)NC1CCCCC1`, for which the Potency is inactive: > 76.9 µM.

`Cc1nc(N2CCN(C(=O)c3ccco3)CC2)c2c3c(sc2n1)CCC3`: the Potency is inactive: > 76.9 µM. As to `Cc1nn(-c2cc(N3CCOCC3)ccc2N)c(=O)c2ccccc12`, the Potency was inactive: > 76.9 µM. `Cc1nn2c(NCCCN3CCOCC3)c3c(nc2c1-c1ccccc1)CCC3`: the Potency entry is “inactive”. For the compound `COCCn1c(=O)[nH]c2cc(C(=O)NCCN3CCN(c4ccc(OC)cc4)CC3)ccc2c1=O`, the Potency was inactive: > 76.9 µM.

For `CC(C)c1ccc(S(=O)(=O)N2CCN(CC(=O)Nc3ccc4c(c3)OCO4)CC2)cc1`, the Potency was inactive: > 76.9 µM.
